# Assay results taken from PubChem BioAssay AID1347417 (National Center for Advancing Translational Sciences (NCATS), 2020).
# Hit rate of the full screen: of about 120,000 compounds, about 5,300 (4.4%) were called active. Inconclusive means that the source gave no clear call. Such entries were picked first, then a sample of the others. The call rests on the fitted dose curve; in most records, active means well fitted inhibition curve with a large enough effect; inconclusive means small, poorly fitted or top-dose-only effect; inactive means no such curve, though single readings can be large or run the other way. Potencies beside an inconclusive call are fits to weak or partial responses and may not hold up.
# Assay: qHTS Primary assay for Inhibitors of Plasmodium falciparum Dd2 growth in vitro; further: nearly all actives have a fitted effect of over 65% in size;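 on activity, negative = inhibition: plate controls were DMSO vehicle for no effect and reference drug for full effect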
# Conditions: P. falciparum Dd2 growth, SYBR Green, 72 h; activity, negative = inhibition: at 28.9 µM (top of the series) unless noted; series mostly up to 28.9 µM
# Outline: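 Readout: SYBR Green fluorescence, 485 nm excitation, 535 nm emission, after ~16 h lysis at 37C. Before that, Dd2-infected red cells (2.5% hematocrit) grew 72 h with compound, 29 uM top final concentration.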
# Potency means the concentration at half of the fitted maximal effect; tags describe the fitted curve by direction and shape.
Structure (SMILES),"activity, negative = inhibition",Potency,outcome
CCCN1CC2(CCN(C)CC2)CC1C(=O)N(C)Cc1ccn[nH]1 (centres undefined),inactive: -1.06%,,
CCC1CCCCN1CCCNC(=O)c1ccc2c(c1)N(Cc1ccccc1)C(=O)c1ccccc1S2(=O)=O (centres undefined),,"inconclusive: 4.47 µM [inhibitor, partial curve, poor fit]",
CCN(CC)c1ccc(CN(C(=O)Cc2coc3ccc(C)cc23)C2CCS(=O)(=O)C2)cc1 (centres undefined),,active: 12.6 µM,
CC(=O)Nc1ccc(NC(=O)Cn2ccn3nc4c(c3c2=O)CCCCC4)cc1,,"inconclusive: 0.158 µM [inhibitor, full curve, poor fit]",
O=C(Nc1ccc2nc(SCc3ccccc3)sc2c1)c1ccccc1F,,"inconclusive: 17.8 µM [inhibitor, single point]",
COc1cccc(-c2ccc(CN3C4CCC3CN(C(=O)c3ccncc3)C4)cc2)c1,,"inconclusive: 11.2 µM [inhibitor, partial curve]",
Cn1nc(C2CCCCC2)cc1[C@H]1CN2CC[C@H]1C[C@@H]2CNS(=O)(=O)c1ccccc1,,"inconclusive: 3.98 µM [inhibitor, single point]",
CN(C)CCNCc1ccc(-c2ccccc2)o1,,"inconclusive: 1.78 µM [inhibitor, full curve]",
Cc1ccc(OCC(=O)Nc2ccc3c(c2)nc(CCNC(=O)c2ccco2)n3C)cc1,,"inconclusive: 3.16 µM [inhibitor, full curve, poor fit]",
Cc1cc(Cl)ccc1OCC(=O)N1CCC2(CC1)CC(O)CCO2 (centres undefined),,"inconclusive: 3.98 µM [inhibitor, single point]",
CC(=O)N1CCC(CC(=O)N2CCN(c3cc(-c4ccccc4)[nH]n3)CC2)CC1,inactive: 12%,,
CC(C)CCNC(=O)c1ccc2c(c1)N(Cc1cccc(Cl)c1)C(=O)c1ccccc1S2,,"inconclusive: 10 µM [inhibitor, single point]",
COc1ccc(C(=O)NCc2nnc(SCC(=O)Nc3ccccc3)n2-c2ccccc2)cc1,,"inconclusive: 20 µM [inhibitor, single point]",
CN1C[C@@H](NS(=O)(=O)Cc2ccccc2)C[C@H]1c1nc(-c2ccccc2)no1,,"inconclusive: 11.2 µM [inhibitor, single point]",
COc1cc(Cl)c(C)cc1NC(=O)c1ccc2c(SCC(=O)O)c3c(nc2c1)CCCC3,,"inconclusive: 17.8 µM [inhibitor, single point]",
CCN(C1CCOCC1)C1CN(C(=O)c2nccn2C)C1,inactive: 7.89%,,
CC(C)c1noc(-c2cn(C3CCN(C(=O)COc4ccccc4)CC3)nn2)n1,,"inconclusive: 1.78 µM [inhibitor, full curve, poor fit]",
COc1ccc(S(=O)(=O)Nc2ccc(C)n(CC(=O)Nc3ccccc3)c2=O)cc1,,"inconclusive: 0.891 µM [inhibitor, full curve, poor fit]",
CCn1c(=O)c(=O)n(CC)c2cc(N3CCCCC3)c(NC(=O)c3ccc(Cl)cc3)cc21,,"inconclusive: 0.282 µM [inhibitor, full curve]",
COCCCNc1nc2cc(OC)c(OC)cc2c2nc(-c3ccccc3)nn12,,"inconclusive: 0.282 µM [inhibitor, full curve, poor fit]",
O=C(Nc1ccc([C@H]2OCC(=O)N(Cc3ccc(F)cc3)[C@@H]2CO)cc1)C1CC1,inactive: -9.99% [at 44.1 µM],,
Cc1cccnc1C(=O)N1C[C@@H](CO)[C@H](c2ccccn2)C1,inactive: 5.99%,,

Structure (SMILES),"activity, negative = inhibition",Potency,outcome
O=C1c2cncnc2OCC(CNC(=O)C2(c3ccccc3)CC2)N1Cc1ccccc1 (centres undefined),,"inconclusive: 12.6 µM [inhibitor, partial curve]",
CC(C)n1cnc(S(=O)(=O)N2CCCC(C(=O)NCc3ccccc3Cl)C2)c1 (centres undefined),inactive: 14.6%,,
Cc1c(C(=O)N(Cc2cccc(OCC3CCOC3)c2)Cc2ccccn2)[nH]c2ccc(Cl)cc12 (centres undefined),inactive: -0.0778%,,
COc1ccc(-c2noc([C@@H]3Cc4nc[nH]c4CN3Cc3cccs3)n2)cc1,,,inactive [at 44.1 µM]
O=C(NCc1ccc2c(c1)OCO2)c1ccc2c(c1)N(Cc1ccccc1)C(=O)c1ccccc1S2=O (centres undefined),inactive: 29.7%,,
CCCOc1c(Cl)cc(C(=O)N(Cc2cccc(OC)c2)C2CCS(=O)(=O)C2)cc1Cl (centres undefined),,"inconclusive: 10 µM [inhibitor, single point]",
COCCc1noc(-c2ccccc2OC2CN(C(=O)Cc3c[nH]c4ccccc34)C2)n1,,"inconclusive: 3.98 µM [inhibitor, single point]",
O=C(Nc1ccc(F)cc1)N[C@H]1[C@H](O)[C@@H](Sc2ccccc2)[C@@H]2OC[C@H]1O2,,,inactive [at 44.1 µM]
O=C(Cc1ccccc1Cl)NC1CCN(c2cc(-c3ccc(F)cc3)[nH]n2)C1 (centres undefined),,"inconclusive: 3.98 µM [inhibitor, partial curve, poor fit]",
CCn1nccc1C(=O)N1CCC2(CC1)NC(=O)N(c1ccccc1)N2,inactive: 61.7%,,
O=C1CCN(C(=O)[C@@H]2CCCN2S(=O)(=O)c2ccccc2)CCCCCCN1,,"inconclusive: 20 µM [inhibitor, single point]",
Cc1cccc2c(=O)cc(CSc3ccccc3NC(=O)c3cccc(F)c3)[nH]c12,,,inactive
COc1cccc(CNC(=O)CSc2c3c(nc4cc(Cl)ccc24)CCCC3)c1,,"inconclusive: 17.8 µM [inhibitor, single point]",
CN(C)CCCN(C(=O)c1ccc2c(c1)OCCO2)c1nc2ccccc2s1,,"inconclusive: 12.6 µM [inhibitor, single point]",
COc1ccc(S(=O)(=O)N2CCc3c(C(=O)N(C)C)cccc32)cc1,,"inconclusive: 11.2 µM [inhibitor, single point]",
COc1ccc(NC(=O)O[C@@H]2CO[C@H]3[C@@H]2OC[C@@H]3NC(=O)Nc2ccc(C(C)=O)cc2)cc1,,"inconclusive: 11.2 µM [inhibitor, single point]",
COCC(=O)NC[C@H]1O[C@@H](CO)[C@@H](O)[C@H]1N1CCC(C)CC1,inactive: -6.13% [at 44.1 µM],,
CN(C)c1nccnc1OC1CCN(C(=O)c2ccoc2)C1 (centres undefined),,"inconclusive: 20 µM [inhibitor, single point]",
Cc1cc(C(=O)N2CCC(N3CCCC(C(=O)NCCc4ccccc4)C3)CC2)n[nH]1 (centres undefined),inactive: 9.54%,,
Cc1cc(C(=O)Nc2ccc(C(C)C)cc2)c2c(C)nn(-c3ccccc3)c2n1,,"inconclusive: 17.8 µM [inhibitor, single point]",
COc1ccc2[nH]c3c(c2c1)CCNC31CCN(C(=O)Cc2cccnc2)CC1,,"inconclusive: 7.94 µM [inhibitor, single point]",
CC(=O)Nc1ccc(NC(=O)c2cc3n(n2)CC(c2ccc(Br)cc2)OC3)cc1 (centres undefined),inactive: -13%,,

Structure (SMILES),"activity, negative = inhibition",Potency,outcome
CC(CCC(=O)N1CCn2nc(Cc3ccccc3)cc2C1)N1CCCC1 (centres undefined),,"inconclusive: 4.47 µM [inhibitor, partial curve]",
O=C(Nc1ccc(Cl)c(-c2nc3cc(Cl)ccc3o2)c1)c1cc([N+](=O)[O-])ccc1N1CCOCC1,,"inconclusive: 11.2 µM [inhibitor, single point]",
Cn1cc(-c2ccc(F)c(Cl)c2)c2nc(CN3CC[S+](=O)([O-])CC3)cn2c1=O,inactive: -15.2% [at 44.1 µM],,
Cc1noc(C)c1C(=O)N[C@@H]1CN(c2ncccn2)C[C@H]1CN(C)C,inactive: 16.2%,,
O=C(Cc1ccc(F)cc1)N1CCN(C2CCN(Cc3cccnc3)C2=O)CC1 (centres undefined),,"inconclusive: 7.94 µM [inhibitor, single point]",
CCOc1ccccc1C(=O)Nc1nc2c(s1)CC(C)CC2 (centres undefined),,"inconclusive: 0.0398 µM [inhibitor, full curve, poor fit]",
COc1cccc(-n2c(SCC(=O)c3ccc(Cl)cc3)nc3c([nH]c4ccccc43)c2=O)c1,,,inactive
CC1(C)[C@H](Cc2cc(-c3ccccc3)on2)C[C@@H]1NCC1CC1,,active: 12.6 µM,
COCC1CN(Cc2ccc(Cl)c(F)c2)CC12CCNCC2 (centres undefined),,"inconclusive: 2 µM [inhibitor, full curve, poor fit]",
CSc1ccc(CNC(=O)c2ccc(NC(=O)c3nsc4ccccc34)cc2)cc1,,"inconclusive: 11.2 µM [inhibitor, partial curve]",
CCc1noc(-c2cn(C3CCN(C(=O)c4cc(C)ccc4C)CC3)nn2)n1,,,inactive
C#CCNC(=O)[C@@H]1Cc2cn(Cc3cc(C)on3)c3cccc(c23)[C@H](CC(C)C)N1,,"inconclusive: 10 µM [inhibitor, partial curve, poor fit]",
O=C(NC1CCCN(c2cc(-c3ccc(F)cc3)[nH]n2)C1)c1nccc2ccccc12 (centres undefined),,"inconclusive: 3.16 µM [inhibitor, single point]",
COc1ccc(S(=O)(=O)N2C[C@@H]3C[C@H](C2)c2c(-c4cccs4)ccc(=O)n2C3)cc1,,"inconclusive: 0.501 µM [inhibitor, partial curve, poor fit]",
Cc1nn(-c2ccc(C(C)(C)C)cc2)c(C)c1[C@@H]1C=C[C@@H](NC(=O)NC(C)C)C1,,active: 10 µM,
Cn1cc(C(=O)N2CCN(c3cccc(C(F)(F)F)c3)CC2)c2c3ccccc3n(C)c2c1=O,,"inconclusive: 17.8 µM [inhibitor, single point]",
COc1ccc2[nH]c3c(c2c1)CCNC31CCN(C(=O)C2CCC2)CC1,,"inconclusive: 17.8 µM [inhibitor, single point]",
CC1=C[C@@H](CNS(C)(=O)=O)[C@H](C(C)C)C[C@H]1Cc1nnc(-c2ccncc2)o1,,"inconclusive: 12.6 µM [inhibitor, single point]",
COc1ccccc1CNC(=O)c1ccc(-c2nc(CN3CCc4ccccc43)c(C)o2)cc1,,active: 10 µM,
Cc1nc(N2CCC(C(=O)NCC3CC3)CC2)nc2cc(S(C)(=O)=O)ccc12,inactive: -5.38%,,
